# Reference: PubChem BioAssay AID504333 (National Center for Advancing Translational Sciences (NCATS), 2011)
# Screen size: about 360,000 compounds; about 16,000 (4.4%) were called active. The inconclusive results got no clear call from the source; some entries with a clear call stand among them for comparison. Calls follow the shape of the dose curve; as a rule, active = well fitted inhibition curve with a large enough effect; inconclusive = small, poorly fitted or top-dose-only effect; inactive = no such curve, though single readings can be large or run the other way. Potencies of inconclusive entries are doubtful fits and often do not repeat. The source holds several records for some structures; these can differ, active in one and inactive in another.
# Target: Bromodomain adjacent to zinc finger domain protein 2B (Homo sapiens) (UniProt Q9UIF8)
# Assay: qHTS Assay for Inhibitors of BAZ2B; also: nearly all actives have a fitted effect of over 60% in size
# Conditions: AlphaScreen BAZ2B-H3K14Ac peptide displacement; series mostly up to 114 µM
# In short: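 AlphaScreen displacement: compounds (up to 110uM) incubated 30 min at room temperature with a preformed 50 nM BAZ2B/50 nM biotinylated H3K14Ac peptide complex in PBS pH 7.4 with Tween-20. Donor and acceptor beads at 10 ug/mL final added, 20 min light-protected before reading.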
# Potency is read from the fitted curve at half-maximal effect; tags tell the direction and shape of the fitted curve.
# Sequence of UniProt Q9UIF8 (Q9UIF8 whole entry, looked up, the tested form may be a part): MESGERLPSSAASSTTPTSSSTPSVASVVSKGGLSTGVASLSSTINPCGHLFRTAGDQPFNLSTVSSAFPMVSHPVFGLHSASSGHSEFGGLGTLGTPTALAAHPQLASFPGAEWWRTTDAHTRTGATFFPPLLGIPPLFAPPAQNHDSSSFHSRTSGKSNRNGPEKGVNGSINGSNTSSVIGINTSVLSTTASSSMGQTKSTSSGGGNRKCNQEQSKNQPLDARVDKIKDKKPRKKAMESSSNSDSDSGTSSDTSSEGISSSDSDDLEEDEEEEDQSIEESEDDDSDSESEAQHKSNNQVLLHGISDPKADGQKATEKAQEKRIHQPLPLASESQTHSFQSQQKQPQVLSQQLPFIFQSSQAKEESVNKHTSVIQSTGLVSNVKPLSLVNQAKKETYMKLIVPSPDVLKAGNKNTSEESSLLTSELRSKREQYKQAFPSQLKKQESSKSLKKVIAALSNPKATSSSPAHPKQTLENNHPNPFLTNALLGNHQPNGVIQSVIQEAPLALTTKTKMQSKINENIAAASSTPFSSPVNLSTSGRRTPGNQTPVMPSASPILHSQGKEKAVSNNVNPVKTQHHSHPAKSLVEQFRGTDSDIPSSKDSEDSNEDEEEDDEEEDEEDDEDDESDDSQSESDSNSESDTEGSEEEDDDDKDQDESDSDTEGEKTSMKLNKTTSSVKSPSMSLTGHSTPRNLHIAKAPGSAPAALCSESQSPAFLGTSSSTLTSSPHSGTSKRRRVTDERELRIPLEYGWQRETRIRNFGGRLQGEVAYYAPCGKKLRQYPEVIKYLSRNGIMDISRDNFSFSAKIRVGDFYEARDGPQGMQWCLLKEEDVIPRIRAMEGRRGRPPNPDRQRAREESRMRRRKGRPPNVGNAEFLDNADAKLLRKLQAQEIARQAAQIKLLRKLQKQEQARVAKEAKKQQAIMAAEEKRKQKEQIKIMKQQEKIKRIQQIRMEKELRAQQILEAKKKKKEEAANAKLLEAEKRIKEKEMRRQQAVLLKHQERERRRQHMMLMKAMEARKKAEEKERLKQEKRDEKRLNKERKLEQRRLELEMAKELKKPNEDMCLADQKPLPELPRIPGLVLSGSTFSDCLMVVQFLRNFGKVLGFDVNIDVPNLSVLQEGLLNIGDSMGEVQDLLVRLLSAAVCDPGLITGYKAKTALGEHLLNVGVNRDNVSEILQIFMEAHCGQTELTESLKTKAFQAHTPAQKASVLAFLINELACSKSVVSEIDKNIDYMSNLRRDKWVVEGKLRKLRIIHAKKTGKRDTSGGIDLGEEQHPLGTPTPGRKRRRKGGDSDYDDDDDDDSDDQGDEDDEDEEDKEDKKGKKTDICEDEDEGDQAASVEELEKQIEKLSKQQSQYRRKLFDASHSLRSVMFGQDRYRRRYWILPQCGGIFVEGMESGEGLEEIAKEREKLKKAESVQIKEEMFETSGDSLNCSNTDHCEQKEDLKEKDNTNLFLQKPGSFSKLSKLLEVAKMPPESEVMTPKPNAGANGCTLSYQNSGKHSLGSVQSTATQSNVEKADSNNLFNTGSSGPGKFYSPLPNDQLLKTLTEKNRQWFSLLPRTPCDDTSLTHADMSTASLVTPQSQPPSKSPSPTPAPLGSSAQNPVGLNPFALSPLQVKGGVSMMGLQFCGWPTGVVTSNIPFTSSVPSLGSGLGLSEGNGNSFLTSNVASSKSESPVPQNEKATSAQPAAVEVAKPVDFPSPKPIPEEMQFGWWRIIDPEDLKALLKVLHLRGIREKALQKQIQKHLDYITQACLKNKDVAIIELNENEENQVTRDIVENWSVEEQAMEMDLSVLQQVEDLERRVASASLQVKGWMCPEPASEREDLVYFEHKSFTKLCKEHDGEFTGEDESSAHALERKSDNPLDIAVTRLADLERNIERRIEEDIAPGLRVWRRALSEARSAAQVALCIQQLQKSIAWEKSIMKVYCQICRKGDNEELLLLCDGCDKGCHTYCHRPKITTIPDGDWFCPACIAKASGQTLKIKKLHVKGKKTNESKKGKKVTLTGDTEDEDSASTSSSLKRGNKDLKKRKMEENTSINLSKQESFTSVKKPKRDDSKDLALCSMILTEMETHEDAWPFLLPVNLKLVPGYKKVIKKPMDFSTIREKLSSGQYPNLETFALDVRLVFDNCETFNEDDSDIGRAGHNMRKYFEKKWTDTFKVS
row,SMILES,Potency
1,COc1ccc(C2CC(=O)c3c([nH]c(C(=O)OCCOc4ccccc4)c3C)C2)cc1OC (stereo not drawn),inactive
2,COc1cc2cc(C(c3nnnn3C(C)(C)C)N3CCc4ccccc43)c(=O)[nH]c2cc1OC (stereo not drawn),"inconclusive: 44.7 µM [inhibitor, partial curve]"
3,O=C(N/C=C/c1ccco1)Nc1cccc(Cl)c1,"inconclusive: 50.1 µM [inhibitor, partial curve]"
4,NC(=O)c1ccccc1C[C@H](C(=O)O)N1C(=O)c2ccc(C(=O)O)cc2C1=O,"inconclusive: 79.4 µM [inhibitor, single point]"
5,O=C(NC(=S)Nc1ccc(N2CCCCC2)c(Cl)c1)c1ccc2c(c1)OCCO2,"inconclusive: 50.1 µM [inhibitor, single point]"
6,COc1ccc2c(C)c(CCC(=O)NCc3ccc(OC)c(OC)c3)c(=O)oc2c1,inactive
7,CCNc1ccc(Br)cc(C(=O)/C=C/c2c(Cl)cccc2Cl)c1=O,active: 25.1 µM
8,CN1CCN(CCC(=O)N/N=C/c2ccccn2)CC1,"inconclusive: 89.1 µM [inhibitor, single point]"
9,COCCOC(=O)c1[nH]c2c(c1C)C(=O)C(C(=O)OC)C(C)C2 (stereo not drawn),inactive
10,CCOC(=O)c1ccc(NC(=O)CN2C(=O)CC(c3ccc(C)c(C)c3)=Nc3ccccc32)cc1,"inconclusive: 79.4 µM [inhibitor, single point]"
11,CCN(C(=O)CSc1nnc(COc2ccccc2F)n1N)C1CCS(=O)(=O)C1 (stereo not drawn),inactive
12,Cc1ccc(-n2cccn2)c([C@@H]2C[C@H]3CN(C)C(=O)[C@]34CCCN24)c1,inactive
13,CCN(CC)S(=O)(=O)c1ccc2oc(SCC(=O)NC3CC3)nc2c1,"inconclusive: 3.55 µM [inhibitor, single point]"
14,O=C1CSC(c2ccc([N+](=O)[O-])cc2)N1c1ccccc1F (stereo not drawn),inactive
15,CC(C)c1nnc(NC(=O)c2nc(S(=O)(=O)Cc3ccccc3)ncc2Cl)s1,active: 50.1 µM
16,Cc1ccc(-n2c(SCC(=O)N3CCC(C)CC3)nc3c([nH]c4ccccc43)c2=O)cc1,inactive
17,COc1ccc(O)c(CN2CCC(n3nccc3NC(=O)CCOc3ccccc3)CC2)c1,"inconclusive: 56.2 µM [inhibitor, partial curve]"
18,Cc1cc(NC(=O)CN2C(=O)CSc3ccc(S(=O)(=O)N(C)C)cc32)ccc1Br,inactive
19,Cc1nn(-c2ccccc2)c(N2CCCCC2)c1/C=N/NC(=O)c1ccncc1,"inconclusive: 79.4 µM [inhibitor, single point]"
20,C[C@H](NC(=O)c1nc[nH]c1C(=O)NCCCCCN)C(=O)OCc1ccccc1,active: 50.1 µM
21,O=C1CCCC(O)=C1N=Nc1c(Cl)cc(Cl)cc1Cl,active: 50.1 µM
22,COc1ccccc1CNC(=O)C1CCN(Cc2nc(-c3cccc(Cl)c3)oc2C)CC1,"inconclusive: 50.1 µM [inhibitor, partial curve]"
23,Cc1cccc(C)c1-n1c(C)nn(CC#N)c1=O,"inconclusive: 79.4 µM [inhibitor, single point]"
24,Cc1ccc(C2C3=C(CCCC3=O)N=C3c4ccccc4C(=O)C32)cc1 (stereo not drawn),active: 28.2 µM

row,SMILES,Potency
1,CC1(C)CC(=O)c2c(oc3cc(O)c(O)cc23)C1,inactive
2,COc1cc2nc(N3CCN(C(=O)[C@H]4COc5ccccc5O4)CC3)nc(N)c2cc1OC,"inconclusive: 56.2 µM [inhibitor, partial curve]"
3,O=C(CSc1nnc(SCC(=O)c2ccco2)s1)c1ccco1,"inconclusive: 89.1 µM [inhibitor, single point]"
4,CC(C)C1=CC(=Nc2ccc(S(N)(=O)=O)cc2)C=C(C(C)C)C1=O,active: 44.7 µM
5,Cn1cc(C(=O)NCc2ccccc2)c(=O)c2cc(S(=O)(=O)N3CCCCCC3)ccc21,inactive
6,O=C(NCC1CCCO1)c1cc(-c2ccco2)nc2ccccc12 (stereo not drawn),active: 50.1 µM
7,O=C1c2ccccc2-c2nnc(-c3ccc(O)cc3)cc21,"inconclusive: 79.4 µM [inhibitor, partial curve]"
8,Cc1cc(O)c(-c2cc(O)c(C)cc2O)cc1O,active: 50.1 µM
9,COc1cc2c(cc1OC)C(c1ccc(F)cc1)N(c1ccc(F)cc1)C(=O)C2 (stereo not drawn),inactive
10,CN(C)CC(=O)Nc1cc(C(F)(F)F)ccc1Cl,inactive
11,CN(Cc1ccccc1)c1nc2c(c(=O)n(C)c(=O)n2C)n1CCCc1ccccc1,"inconclusive: 79.4 µM [inhibitor, single point]"
12,CC1CCCC2(C1)NC(=S)N(c1ccccc1)N2 (stereo not drawn),inactive
13,Cn1cnnc1SCC(=O)Nc1ccc(Cl)cn1,inactive
14,COc1ccc(N2CCN(C(=O)CCCN3C(=O)c4cccc5cccc(c45)C3=O)CC2)cc1,active: 39.8 µM
15,COc1ccc(CCn2nnnc2C(c2ccc(Cl)cc2)N2CCN(C)CC2)cc1OC (stereo not drawn),"inconclusive: 89.1 µM [inhibitor, single point]"
16,COc1ccc(-c2cccc(NS(=O)(=O)c3cc([N+](=O)[O-])c(C)c([N+](=O)[O-])c3)c2)nn1,"inconclusive: 89.1 µM [inhibitor, single point]"
17,O=C(O)C1Cc2ccccc2CN1S(=O)(=O)/C=C/c1ccccc1 (stereo not drawn),active: 79.4 µM
18,COc1cccc(Nc2nc(-c3sc(NC(=O)c4ccco4)nc3C)cs2)c1,"inconclusive: 44.7 µM [inhibitor, partial curve]"
19,O=C(Cc1csc(N2CCOCC2)n1)N/N=C/c1ccc(Cl)cc1Cl,"inconclusive: 79.4 µM [inhibitor, single point]"
20,Cn1c(Cn2nnc3ccccc32)nnc1SCC(=O)Nc1ccc2c(c1)OCO2,inactive
21,Fc1ccc(CNc2cc(-c3ccccc3)nc3nncn23)cc1,inactive
22,c1coc(C2Nc3ccccc3-c3nc4ccccc4n32)c1 (stereo not drawn),"inconclusive: 100 µM [inhibitor, single point]"
23,Cn1c(=O)c([N+](=O)[O-])c(-n2ccnc2)c2ccccc21,inactive
24,Cc1noc(C)c1COC(=O)c1ccc2c(c1)S(=O)(=O)c1ccccc1C2=O,"inconclusive: 70.8 µM [inhibitor, partial curve]"
